According to publication PMC4974512:
These are yes or no findings as the source states them, for the method shown. In cells and extracts the contact can be indirect. Some binding calls cover weakened binding; strength is not graded here. For some of these results: Sequences can lack the tags named with a protein. Each block holds one molecule with its values, some of them ahead of it.

Protein sequences, listed by entry. Tags and fused reporters are not part of them.
UniProt Q04206: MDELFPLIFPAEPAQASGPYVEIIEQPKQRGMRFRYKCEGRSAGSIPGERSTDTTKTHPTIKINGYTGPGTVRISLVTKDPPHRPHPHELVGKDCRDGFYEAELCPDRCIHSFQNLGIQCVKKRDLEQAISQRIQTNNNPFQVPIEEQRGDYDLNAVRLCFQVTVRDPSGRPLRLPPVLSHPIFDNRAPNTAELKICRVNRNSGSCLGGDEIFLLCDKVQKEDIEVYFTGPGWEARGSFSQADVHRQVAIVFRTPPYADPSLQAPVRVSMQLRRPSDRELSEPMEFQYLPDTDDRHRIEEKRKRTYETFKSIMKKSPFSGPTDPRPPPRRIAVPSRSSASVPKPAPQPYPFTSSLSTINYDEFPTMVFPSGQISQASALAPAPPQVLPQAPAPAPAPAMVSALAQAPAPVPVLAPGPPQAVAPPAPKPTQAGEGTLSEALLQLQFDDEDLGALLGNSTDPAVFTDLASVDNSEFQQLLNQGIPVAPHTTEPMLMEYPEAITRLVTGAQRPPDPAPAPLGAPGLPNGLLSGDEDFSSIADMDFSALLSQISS
UniProt P25963: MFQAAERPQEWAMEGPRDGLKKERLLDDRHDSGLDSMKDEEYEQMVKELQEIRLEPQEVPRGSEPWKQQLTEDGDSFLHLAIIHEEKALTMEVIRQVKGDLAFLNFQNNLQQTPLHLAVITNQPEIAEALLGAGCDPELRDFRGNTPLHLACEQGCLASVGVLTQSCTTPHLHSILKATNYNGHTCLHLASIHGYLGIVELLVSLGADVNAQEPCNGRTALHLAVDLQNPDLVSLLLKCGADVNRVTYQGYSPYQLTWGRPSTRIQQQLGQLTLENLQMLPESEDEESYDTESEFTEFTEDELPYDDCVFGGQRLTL

What was measured:
[1] = biological target: T1, annexin A4 (ANXA4), endogenous (human (endogenous in GBC-SD and NOZ)) (UniProt P09525); test: co-IP; immunoprecipitation of endogenous ANXA4 with an ANXA4 antibody (IgG as control) from extracts of GBC-SD and NOZ cells (non-transfected, scrambled control and ANXA4-knockdown clones); western blot of the immunoprecipitates
T1 sequence: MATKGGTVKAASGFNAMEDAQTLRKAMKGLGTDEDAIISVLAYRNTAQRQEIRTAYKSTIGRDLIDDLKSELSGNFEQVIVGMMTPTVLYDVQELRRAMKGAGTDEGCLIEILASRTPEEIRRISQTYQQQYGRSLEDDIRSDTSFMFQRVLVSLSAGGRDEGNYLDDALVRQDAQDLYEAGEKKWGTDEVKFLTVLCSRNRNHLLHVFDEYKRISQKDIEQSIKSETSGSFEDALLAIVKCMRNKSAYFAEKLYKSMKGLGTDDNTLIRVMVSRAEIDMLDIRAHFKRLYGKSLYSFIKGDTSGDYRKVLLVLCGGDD

[2] = biological target: T2, C-terminal FLAG-tagged ANXA4 (cFLAG-ANXA4) (human) (UniProt P09525); test: pull-down; His-tag pull-down from nuclear extracts of GBC-SD or NOZ cells transfected with cFLAG-ANXA4 and/or His-p65; western blot with His, FLAG, p50 and IκBα antibodies
T2 sequence: T1 sequence

[3] = biological target: T3, C-terminal FLAG-tagged ANXA4 (cFLAG-ANXA4) (human), P09525; test: as above; conditions: remark: other sources report otherwise
T3 chain: T1 sequence

[4] = biological target: His-tagged p65 (His-p65) (UniProt Q04206); test: as above

binding [1]: no binding
B1: NF-κB subunit cRel, endogenous (protein, UniProt Q04864 1-619)
chain: MASGAYNPYIEIIEQPRQRGMRFRYKCEGRSAGSIPGEHSTDNNRTYPSIQIMNYYGKGKVRITLVTKNDPYKPHPHDLVGKDCRDGYYEAEFGQERRPLFFQNLGIRCVKKKEVKEAIITRIKAGINPFNVPEKQLNDIEDCDLNVVRLCFQVFLPDEHGNLTTALPPVVSNPIYDNRAPNTAELRICRVNKNCGSVRGGDEIFLLCDKVQKDDIEVRFVLNDWEAKGIFSQADVHRQVAIVFKTPPYCKAITEPVTVKMQLRRPSDQEVSESMDFRYLPDEKDTYGNKAKKQKTTLLFQKLCQDHVETGFRHVDQDGLELLTSGDPPTLASQSAGITVNFPERPRPGLLGSIGEGRYFKKEPNLFSHDAVVREMPTGVSSQAESYYPSPGPISSGLSHHASMAPLPSSSWSSVAHPTPRSGNTNPLSSFSTRTLPSNSQGIPPFLRIPVGNDLNASNACIYNNADDIVGMEASSMPSADLYGISDPNMLSNCSVNMMTTSSDSMGETDNPRLLSMNLENPSCNSVLDPRDLRQLHQMSSSSMSAGANSNTTVFVSQSDAFEGSDFSCADNSMINESGPSNSTNPNSHGFVQDSQYSGIGSMQNEQLSDSFPYEFFQV

binding [3]: no binding
B2: NF-κB p50 subunit, endogenous, P19838 1-433 (protein)
chain: MAEDDPYLGRPEQMFHLDPSLTHTIFNPEVFQPQMALPTDGPYLQILEQPKQRGFRFRYVCEGPSHGGLPGASSEKNKKSYPQVKICNYVGPAKVIVQLVTNGKNIHLHAHSLVGKHCEDGICTVTAGPKDMVVGFANLGILHVTKKKVFETLEARMTEACIRGYNPGLLVHPDLAYLQAEGGGDRQLGDREKELIRQAALQQTKEMDLSVVRLMFTAFLPDSTGSFTRRLEPVVSDAIYDSKAPNASNLKIVRMDRTAGCVTGGEEIYLLCDKVQKDDIQIRFYEEEENGGVWEGFGDFSPTDVHRQFAIVFKTPKYKDINITKPASVFVQLRRKSDLETSEPKPFLYYPEIKDKEEVQRKRQKLMPNFSDSFGGGSGAGAGGGGMFGSGGGGGGTGSTGPGYSFPHYGFPTYGGITFHPGTTKSNAGMKHG

binding [1]: no binding
B4: NF-κB subunit RelB, endogenous (protein, UniProt Q01201 1-579)
chain: MLRSGPASGPSVPTGRAMPSRRVARPPAAPELGALGSPDLSSLSLAVSRSTDELEIIDEYIKENGFGLDGGQPGPGEGLPRLVSRGAASLSTVTLGPVAPPATPPPWGCPLGRLVSPAPGPGPQPHLVITEQPKQRGMRFRYECEGRSAGSILGESSTEASKTLPAIELRDCGGLREVEVTACLVWKDWPHRVHPHSLVGKDCTDGICRVRLRPHVSPRHSFNNLGIQCVRKKEIEAAIERKIQLGIDPYNAGSLKNHQEVDMNVVRICFQASYRDQQGQMRRMDPVLSEPVYDKKSTNTSELRICRINKESGPCTGGEELYLLCDKVQKEDISVVFSRASWEGRADFSQADVHRQIAIVFKTPPYEDLEIVEPVTVNVFLQRLTDGVCSEPLPFTYLPRDHDSYGVDKKRKRGMPDVLGELNSSDPHGIESKRRKKKPAILDHFLPNHGSGPFLPPSALLPDPDFFSGTVSLPGLEPPGGPDLLDDGFAYDPTAPTLFTMLDLLPPAPPHASAVVCSGGAGAVVGETPGPEPLTLDSYQAPGPGDGGTASLVGSNMFPNHYREAAFGGGLLSPGPEAT

binding [1]: no binding
B5: NF-κB subunit p52, endogenous (protein, UniProt Q00653 1-454)
chain: MESCYNPGLDGIIEYDDFKLNSSIVEPKEPAPETADGPYLVIVEQPKQRGFRFRYGCEGPSHGGLPGASSEKGRKTYPTVKICNYEGPAKIEVDLVTHSDPPRAHAHSLVGKQCSELGICAVSVGPKDMTAQFNNLGVLHVTKKNMMGTMIQKLQRQRLRSRPQGLTEAEQRELEQEAKELKKVMDLSIVRLRFSAFLRASDGSFSLPLKPVISQPIHDSKSPGASNLKISRMDKTAGSVRGGDEVYLLCDKVQKDDIEVRFYEDDENGWQAFGDFSPTDVHKQYAIVFRTPPYHKMKIERPVTVFLQLKRKRGGDVSDSKQFTYYPLVEDKEEVQRKRRKALPTFSQPFGGGSHMGGGSGGAAGGYGGAGGGGSLGFFPSSLAYSPYQSGAGPMGCYPGGGGGAQMAATVPSRDSGEEAAEPSAPSRTPQCEPQAPEMLQRAREYNARLFGLA

The remaining lines, values behind:

Molecule: nuclear factor-κB (NF-κB) p65 subunit, endogenous (from UniProt Q04206 1-551)
binding [1]: binds

Molecule: inhibitor of κB (IκBα), endogenous (from UniProt P25963 1-317)
binding [2]: no binding

B3: C-terminal FLAG-tagged ANXA4 (cFLAG-ANXA4) (protein, UniProt P09525 1-319)
chain: T1 sequence
binding [4]: binds
